Measured values reported in PubChem BioAssay AID1460 (National Center for Advancing Translational Sciences (NCATS), 2008).
Hit rate of the full screen: of about 270,000 compounds, about 5,800 (2.1%) were called active. Inconclusive results, whose numbers are uncertain, are shown with a selection of clear calls. Calls come from the whole dose curve; as a rule, active = well fitted inhibition curve with a large enough effect; inconclusive = small, poorly fitted or top-dose-only effect; inactive = flat fitted curve, though single readings scatter. A potency beside an inconclusive call is a rough fit, not a confirmed value. The source holds several records for some structures; these can differ, active in one and inactive in another.

target: Microtubule-associated protein tau (Homo sapiens) (UniProt P10636); experiment: qHTS for Inhibitors of Tau Fibril Formation, Thioflavin T Binding; settings: recombinant tau K18 P301L, heparin-induced fibrillization, ThT fluorescence; series mostly up to 57.4 µM; note: nearly all actives have a fitted effect of over 55% in size
Method in brief: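 Using a mix of unlabeled (15 uM) and Alexa 594-labeled (0.24 uM) tau K18 P301L, heparin-triggered fibrillization over 6 hr at 37 C was scored by ThT fluorescence.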
Potency is the fitted concentration of half-maximal effect; tags give direction and shape of the fitted curve.

Chain of UniProt P10636 (P10636 whole entry, looked up): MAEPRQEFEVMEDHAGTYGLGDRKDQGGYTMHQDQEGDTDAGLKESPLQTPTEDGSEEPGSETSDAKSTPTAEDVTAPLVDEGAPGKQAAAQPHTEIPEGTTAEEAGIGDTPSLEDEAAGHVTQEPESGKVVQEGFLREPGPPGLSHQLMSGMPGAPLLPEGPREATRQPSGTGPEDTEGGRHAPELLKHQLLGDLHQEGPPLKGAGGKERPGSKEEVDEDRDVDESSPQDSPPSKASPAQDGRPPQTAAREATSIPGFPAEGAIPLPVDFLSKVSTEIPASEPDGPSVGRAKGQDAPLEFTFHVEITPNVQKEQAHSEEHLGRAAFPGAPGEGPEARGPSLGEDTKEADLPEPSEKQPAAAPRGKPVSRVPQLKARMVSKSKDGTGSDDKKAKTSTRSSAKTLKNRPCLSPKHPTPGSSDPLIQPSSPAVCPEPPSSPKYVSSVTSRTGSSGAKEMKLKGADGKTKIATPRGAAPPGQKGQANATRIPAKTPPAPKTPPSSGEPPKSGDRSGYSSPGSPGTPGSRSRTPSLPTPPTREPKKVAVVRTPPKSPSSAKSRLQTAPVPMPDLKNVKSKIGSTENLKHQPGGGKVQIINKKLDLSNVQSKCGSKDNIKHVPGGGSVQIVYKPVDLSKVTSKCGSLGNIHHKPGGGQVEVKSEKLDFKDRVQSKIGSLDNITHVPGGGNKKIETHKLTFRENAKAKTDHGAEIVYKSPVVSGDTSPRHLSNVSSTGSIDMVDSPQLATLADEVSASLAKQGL

SMILES	Potency
CCN1CCN(C(=O)Nc2cc(Cl)ccc2OC)CC1	inactive
N#C/C(=C(/O)CN1CCN(c2ccccc2F)CC1)c1nc(-c2ccccc2)cs1	inconclusive: 6.31 µM [inhibitor, partial curve]
O=C(O)c1cccc(NC(=S)N/N=C/c2cccc(O)c2)c1	inconclusive: 22.4 µM [inhibitor, single point]
CCOC(=O)c1c(CSc2ccccc2)oc2cc(Br)c(O)c(CN(C)C)c12	inconclusive: 20 µM [inhibitor, partial curve, poor fit]
N#Cc1ccc(C(=O)OCC(=O)Nc2ccc(N3CCOCC3)cc2)cc1	inconclusive: 11.2 µM [inhibitor, partial curve]
Fc1ccc2c(c1)C(c1cccnc1)=NNC(c1cccs1)=N2	inconclusive: 28.2 µM [inhibitor, single point]
CCOc1ccc(C(=O)c2cn(CC(=O)Nc3cc(OC)ccc3OC)c3cc(OC)c(OC)cc3c2=O)cc1	inconclusive: 3.98 µM [inhibitor, full curve]
CCOc1ccc(NC(=O)NCCN2CCN(c3ccccc3F)CC2)cc1	inconclusive: 14.1 µM [inhibitor, partial curve]
COc1ccccc1N(O)C1CC(=O)N(c2ccc(Br)cc2)C1=O (stereo not drawn)	active: 14.1 µM
COc1ccccc1CCc1nnc(CCC(=O)NC(C)Cc2cccc(C)n2)o1 (stereo not drawn)	inactive
Cc1cc(=O)oc2cc(OCC(=O)Nc3nnc(C(C)C)s3)ccc12	inconclusive: 1.12 µM [inhibitor, full curve]
CCOC(=O)c1cc2c(=O)n3ccccc3nc2n(C)c1=NC(=O)c1cc2ccccc2o1	inactive
O=[N+]([O-])c1cccc(-c2ccc(/C=N/NC(=S)Nc3ccccc3)o2)c1	inconclusive: 3.55 µM [inhibitor, full curve]
COc1ccc(CN2CCCCC2c2cccnc2)c(OC)c1C (stereo not drawn)	inactive
CC(=O)Nc1ccc(C(=O)CSc2nnc3ccc4ccccc4n23)cc1	inconclusive: 3.16 µM [inhibitor, full curve]
CCN(CC)S(=O)(=O)c1ccc(OC)c(NC(=S)Nc2cccc(C)c2C)c1	inactive
CC(C)(C)C(=O)Cn1ncc(Cl)c(Cl)c1=O	inactive
CCOC(=O)c1c(-c2ccc(C)c(C)c2)csc1NC(=O)C1CC=CCC1C(=O)O (stereo not drawn)	inconclusive: 10 µM [inhibitor, partial curve, poor fit]
CCOC(=O)C1C2C=CC3(CN(Cc4ccco4)C(=O)C13)O2 (stereo not drawn)	inconclusive: 35.5 µM [inhibitor, single point]
CCCCc1oc2ccccc2c1C(=O)c1cc(I)c(OCCN(CC)CC)c(I)c1	inconclusive: 39.8 µM [inhibitor, single point]
Cc1nn(-c2ccc(F)cc2)c(Cl)c1/C=C(\CCC(=O)O)c1nc2ccccc2s1	inconclusive: 14.1 µM [inhibitor, partial curve, poor fit]
Cc1cc(=O)oc2cc(OCC(=O)Nc3nnc(C4CC4)s3)ccc12	inconclusive: 0.794 µM [inhibitor, full curve]
CCOC(=O)C1=C(N)OC2=C(C(=O)CCC2)C1c1ccccc1OCC (stereo not drawn)	inconclusive: 35.5 µM [inhibitor, single point]

SMILES	Potency
O=C(CCN1CCC(c2ccccc2)C1)c1cccs1 (stereo not drawn)	inconclusive: 31.6 µM [inhibitor, single point]
CCOC(=O)c1cccc(NC(=O)c2cc3cc4ccc(C)cc4nc3s2)c1	inactive
CSc1ccc(CCNC(=O)c2cc3c(-c4ccccc4F)nn(C)c3s2)cc1	inactive
O=C(Cn1c(C(F)(F)F)nc2ccccc21)Oc1cccc(C(F)(F)F)c1	inconclusive: 25.1 µM [inhibitor, single point]
COc1ccc2c(Cl)c(-c3nnc4n3CCCCC4)sc2c1	inconclusive: 31.6 µM [inhibitor, single point]
O=c1c2ccccc2c(/C=N/NS(=O)(=O)c2ccccc2)c(O)n1-c1ccccn1	inconclusive: 14.1 µM [inhibitor, partial curve, poor fit]
O=C(CNC(=O)c1ccc(Cl)cc1)OCc1cc(=O)n2nc(C3CCCCC3)sc2n1	inconclusive: 0.562 µM [inhibitor, full curve, poor fit]
Nc1c(C(=O)Nc2ccc(Br)cc2)sc2nc(-c3ccncc3)ccc12	inconclusive: 2 µM [inhibitor, full curve]
COc1ccc(Nc2nc(N)nc(CSC(=S)N3CCN(c4ccccc4)CC3)n2)cc1	inconclusive: 3.98 µM [inhibitor, full curve]
N#Cc1cc(Sc2ccccn2)c([N+](=O)[O-])cc1C#N	active: 14.1 µM
O=C(NNc1nc2cc3c(cc2s1)OCO3)c1ccccc1	inconclusive: 14.1 µM [inhibitor, partial curve]
CCN(CC)c1ccc(/C=N/NC(=O)c2ccco2)c(O)c1	inconclusive: 7.08 µM [inhibitor, partial curve]
Cc1ccc(C)c(NC(=O)CCCN2C(=O)C(c3ccccc3)Oc3cccnc32)c1 (stereo not drawn)	inactive
Cc1cc(=O)n2nc(N3CCC(C(=O)Nc4ccc(Br)cc4F)CC3)sc2n1	inconclusive: 1.26 µM [inhibitor, partial curve, poor fit]
N=C1c2ccccc2CN1c1ccc(N2CCOCC2)c(S(=O)(=O)Nc2ccc(Cl)cc2)c1	active: 31.6 µM
Cc1cccc(C(=O)n2c(=S)nc3ccccn32)c1	inconclusive: 7.94 µM [inhibitor, partial curve]
CC1=CC2=NC(=O)/C(=C/c3cccn3Cc3ccccc3)C(=N)N2O1	inconclusive: 10 µM [inhibitor, partial curve, poor fit]
O=C(c1cccc(Cl)c1)C1CCCN(C(=O)c2ccoc2)C1 (stereo not drawn)	inactive
O=C1C2C(c3ccccc3)CC=CC2[C@H](c2ccc(C(F)(F)F)cc2)N1Cc1ccccc1 (stereo partly drawn)	inconclusive: 31.6 µM [inhibitor, partial curve, poor fit]
COc1ccc(Cn2c(O)c(/C=N/NC(=O)c3cccnc3)c3ccccc3c2=O)cc1	inconclusive: 17.8 µM [inhibitor, partial curve]
Nc1nc2ccccc2n1/N=C/c1ccc(-c2ccccc2)o1	inconclusive: 7.94 µM [inhibitor, partial curve]
O=C(c1ccccc1)N1CCN(c2ccc([N+](=O)[O-])c(NCc3cccnc3)c2)CC1	active: 15.8 µM
O=C(Nc1ccc(N2CCN(C(=O)c3ccccc3)CC2)c(Cl)c1)c1ccco1	inconclusive: 14.1 µM [inhibitor, partial curve]

SMILES	Potency
COc1ccc(O)c(/C=N/Nc2nc3ccccc3[nH]2)c1	active: 14.1 µM
CCn1c(CN2CCCCC2)nc2cc(NC(=O)c3ccc([N+](=O)[O-])cc3)ccc21	inactive
CCCCSc1nc(O)c(C2OC(=O)c3c2ccc(OC)c3OC)c(=O)n1-c1ccccc1 (stereo not drawn)	inconclusive: 22.4 µM [inhibitor, partial curve, poor fit]
COC(=O)c1c(NC(=O)/C=C/C(=O)O)sc(C)c1-c1ccc(C)c(C)c1	inconclusive: 10 µM [inhibitor, single point]
Cc1cccc(-c2cc(=O)c3cc(Br)ccc3o2)c1	inconclusive: 10 µM [inhibitor, partial curve, poor fit]
CCc1ccc(CNC(=O)CCn2c(=O)c3cccn3c3ccc(F)cc32)cc1	inactive
CC(=O)N1c2ccccc2N2C(c3c(C)c(C)cc(C)c3C)=NON12	inconclusive: 20 µM [inhibitor, partial curve, poor fit]
Cc1ccc(/C=C2/C(=O)c3ccc(C(=O)O)cc3C2=O)o1	active: 5.62 µM
CCN(CC)NC(=S)Nc1ccccc1	inactive
O=C(Nc1cc(Sc2nc3ccccc3s2)cc([N+](=O)[O-])c1)c1ccccc1	inactive
Cc1cc(C(=O)N/N=C/C=C/c2ccc3c(c2)OCO3)n[nH]1	inconclusive: 2.51 µM [inhibitor, partial curve]
CCO[C@H]1OC(C(=O)O)=C[C@@H](C2CCCCC2)[C@@H]1CCCO	inconclusive: 0.0631 µM [activator, partial curve]
CC(=NC1CCCCC1)C1=C(O)c2ccccc2C1=O	inconclusive: 22.4 µM [inhibitor, partial curve]
CC1(OC(=O)C2CCCC2)C(=O)C=C2C=C(c3ccsc3)N(C3CCCCC3)C=C2C1=O (stereo not drawn)	active: 14.1 µM
Cc1ccc(O)c(NC(=O)CCS(=O)(=O)c2nc(-c3ccc4c(c3)OCO4)cc(C(F)(F)F)n2)c1	inconclusive: 8.91 µM [inhibitor, partial curve]
NC(=O)CC(NC(=O)Cc1ccc(Br)cc1)c1ccc(N2CCN(c3ccc(F)cc3)CC2)c([N+](=O)[O-])c1 (stereo not drawn)	inconclusive: 7.08 µM [inhibitor, full curve]
COc1cc(C(=O)Nc2ccc(-c3nnc(-c4ccco4)o3)cc2)cc(OC)c1OC	inconclusive: 1.41 µM [inhibitor, full curve]
CCOc1ccc2nc(SCc3ccc(F)cc3)sc2c1	inconclusive: 28.2 µM [inhibitor, single point]
COc1ccc2nc(SCC(=O)Nc3ccccc3)[nH]c2c1	inactive
COc1ccc(S(=O)(=O)N(CC(=O)Nc2cccnc2)c2ccc(C)cc2)cc1OC	inactive
COc1ccccc1CC(=O)Nc1ccc2nc(N3CCC(C)CC3)cc(C)c2c1	inactive
CCS(=O)(=O)Nc1cc(C(=O)OC)ccc1C(=O)OC	inconclusive: 25.1 µM [inhibitor, single point]
